# Data published in the supplement of paper PMC4967469.
# Experiments:
# Assay in all cases: Viability of human cancer cell lines after 72 h of drug (GDSC screen)
# BX-795 = compound: O=C(NCCCNc1nc(Nc2cccc(NC(=O)N3CCCC3)c2)ncc1I)c1cccs1 [BX-795]; conditions: top dose 5 µM; top dose inferred
# Experimental: (§1)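 Human cancer cell lines in 384-well plates, medium with 10% serum, drug for 72 h over a 256-fold dose range (nine 2-fold or five 4-fold steps up to the top dose). Adherent lines were fixed and stained with the nucleic acid dye Syto60, suspension lines read with resazurin; signal relative to control wells, capped at 0 and 100%. One two-parameter sigmoid per drug and line, fitted in a mixed model over all curves with the slope shared within a line.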
# Tretinoin = compound: CC1=C(/C=C/C(C)=C/C=C/C(C)=C/C(=O)O)C(C)(C)CCC1 [Tretinoin]; conditions: top dose 10 µM; top dose inferred
# Experimental: as §1
# SB-505124 = compound: Cc1cccc(-c2[nH]c(C(C)(C)C)nc2-c2ccc3c(c2)OCO3)n1 [SB-505124]; conditions: top dose 10 µM; top dose inferred
# Experimental: as §1
# PI-103 = compound: Oc1cccc(-c2nc(N3CCOCC3)c3oc4ncccc4c3n2)c1 [PI-103]; conditions: top dose 10.24 µM
# Experimental: as §1
# GSK690693 = compound: CCn1c(-c2nonc2N)nc2c(C#CC(C)(C)O)ncc(OC[C@H]3CCCNC3)c21 [GSK690693]; conditions: top dose 10.24 µM; top dose inferred
# Experimental: as §1
# UNC0638 = compound: COc1cc2c(NC3CCN(C(C)C)CC3)nc(C3CCCCC3)nc2cc1OCCCN1CCCC1 [UNC0638]
# Experimental: as §1
# [1] = top dose 20 µM, screen: GDSC drug entry 1236, top dose inferred
# [2] = top dose 40 µM, screen: GDSC drug entry 245
Cell Line,AUC (BX-795),IC50 (BX-795) [µM],AUC (Tretinoin),IC50 (Tretinoin) [µM],AUC (SB-505124),IC50 (SB-505124) [µM],AUC (PI-103),IC50 (PI-103) [µM],AUC (GSK690693),IC50 (GSK690693) [µM],AUC (UNC0638; [1]),IC50 (UNC0638; [1]) [µM],AUC (UNC0638; [2]),IC50 (UNC0638; [2]) [µM]
"NCI-H520 (lung squamous cell carcinoma, adherent)",0.987,> 5,0.987,> 10,0.986,> 10,0.189,0.0723,0.663,1.84,0.832,13.4,0.603,4.85
"NCI-H596 (lung adenocarcinoma, adherent)",0.934,> 5,0.967,> 10,0.979,> 10,0.401,0.315,0.82,8.28,0.826,17.2,0.7,10.9
"NCI-H630 (large intestine, adherent)",0.941,> 5,0.979,> 10,0.987,> 10,0.969,> 10.2,0.988,> 10.2,0.982,> 20,0.906,> 40
"NCI-H650 (lung adenocarcinoma, adherent)",0.822,3.3,0.937,> 10,0.985,> 10,0.539,0.827,0.983,> 10.2,0.924,> 20,0.853,36.2
"NCI-H661 (large cell lung carcinoma, adherent)",0.88,> 5,0.964,> 10,0.786,5.33,0.679,2.27,0.939,> 10.2,0.825,15.5,0.717,11.8
"NCI-H727 (lung carcinoid, adherent)",0.907,> 5,0.975,> 10,0.971,> 10,0.699,3.4,0.959,> 10.2,0.778,14.6,0.783,30.9
"NCI-H810 (large cell lung carcinoma, adherent)",0.832,3.02,0.985,> 10,0.987,> 10,0.46,0.501,0.934,> 10.2,0.789,8.45,0.641,6.02
"NCI-H838 (lung adenocarcinoma, adherent)",0.806,2.66,0.987,> 10,0.929,> 10,0.987,> 10.2,0.981,> 10.2,0.926,> 20,0.882,> 40
"NCI-H841 (small cell lung carcinoma, adherent)",0.856,4.06,0.988,> 10,0.947,> 10,0.593,1.15,0.984,> 10.2,0.987,> 20,0.823,23.6
"NCI-H1435 (lung adenocarcinoma, semi-adherent)",0.885,4.45,0.972,> 10,0.992,> 10,0.993,> 10.2,0.993,> 10.2,0.87,15.3,0.85,25.3
"NCI-H1437 (lung adenocarcinoma, adherent)",0.881,> 5,0.943,> 10,0.985,> 10,0.519,0.72,0.961,> 10.2,0.874,> 20,0.804,21
"NCI-H1563 (lung adenocarcinoma, adherent)",0.97,> 5,0.985,> 10,0.947,> 10,0.902,> 10.2,0.945,> 10.2,0.862,> 20,0.793,22.3
"NCI-H1568 (lung adenocarcinoma, adherent)",0.876,> 5,0.949,> 10,0.979,> 10,0.791,5.92,0.976,> 10.2,0.768,9.39,0.982,> 40
"NCI-H1623 (lung adenocarcinoma, adherent)",0.965,> 5,0.892,> 10,0.983,> 10,0.959,> 10.2,0.98,> 10.2,0.966,> 20,0.847,39.8
"NCI-H1651 (lung adenocarcinoma, adherent)",0.941,> 5,0.97,> 10,0.948,> 10,0.974,> 10.2,0.984,> 10.2,0.979,> 20,0.987,> 40
"NCI-H1688 (small cell lung carcinoma, adherent)",0.964,> 5,0.976,> 10,0.981,> 10,0.844,8.46,0.968,> 10.2,0.799,10.7,0.626,5.78
"NCI-H1693 (lung adenocarcinoma, adherent)",0.909,> 5,0.949,> 10,0.973,> 10,0.645,2.06,0.976,> 10.2,0.729,8.53,0.725,16.3
"NCI-H1703 (lung adenocarcinoma, adherent)",0.698,1.28,0.972,> 10,0.967,> 10,0.301,0.155,0.911,> 10.2,0.858,> 20,0.941,> 40

Cell Line,AUC (BX-795),IC50 (BX-795) [µM],AUC (Tretinoin),IC50 (Tretinoin) [µM],AUC (SB-505124),IC50 (SB-505124) [µM],AUC (PI-103),IC50 (PI-103) [µM],AUC (GSK690693),IC50 (GSK690693) [µM],AUC (UNC0638; [1]),IC50 (UNC0638; [1]) [µM],AUC (UNC0638; [2]),IC50 (UNC0638; [2]) [µM]
"NCI-H1755 (lung adenocarcinoma, adherent)",0.824,3.61,0.983,> 10,0.981,> 10,0.783,5.07,0.984,> 10.2,0.811,12.8,0.639,6.45
"NCI-H1781 (lung adenocarcinoma, adherent)",0.95,> 5,0.989,> 10,0.98,> 10,0.989,> 10.2,0.981,> 10.2,0.973,> 20,0.922,> 40
"NCI-H1792 (lung adenocarcinoma, adherent)",0.911,> 5,0.965,> 10,0.98,> 10,0.436,0.436,0.986,> 10.2,0.819,9.97,0.875,32.8
"NCI-H1944 (lung adenocarcinoma, adherent)",0.927,> 5,0.971,> 10,0.983,> 10,0.696,2.37,0.935,> 10.2,0.931,> 20,0.68,8.27
"NCI-H1993 (lung adenocarcinoma, adherent)",0.982,> 5,0.982,> 10,0.939,> 10,0.631,1.65,0.965,> 10.2,0.847,> 20,0.962,> 40
"NCI-H2009 (lung adenocarcinoma, adherent)",0.875,> 5,0.977,> 10,0.969,> 10,0.983,> 10.2,0.987,> 10.2,0.984,> 20,0.897,> 40
"NCI-H2087 (lung adenocarcinoma, semi-adherent)",0.95,> 5,0.982,> 10,0.984,> 10,0.736,3.22,0.986,> 10.2,0.962,> 20,0.769,16.2
"NCI-H2110 (non-small cell lung carcinoma, adherent)",0.886,> 5,0.966,> 10,0.985,> 10,0.682,2.09,0.929,> 10.2,0.944,> 20,0.741,12.5
"NCI-H2172 (non-small cell lung carcinoma, adherent)",0.93,> 5,0.977,> 10,0.977,> 10,0.975,> 10.2,0.978,> 10.2,0.923,> 20,0.904,> 40
"NCI-H2227 (small cell lung carcinoma, semi-adherent)",0.848,4.49,0.814,6.38,0.971,> 10,0.425,0.388,0.924,> 10.2,0.812,12.5,0.725,11.9
"NCI-H2291 (lung adenocarcinoma, adherent)",0.961,> 5,0.982,> 10,0.982,> 10,0.978,> 10.2,0.984,> 10.2,0.844,> 20,0.983,> 40
"NCI-H2342 (lung adenocarcinoma, adherent)",0.917,> 5,0.979,> 10,0.984,> 10,0.967,> 10.2,0.986,> 10.2,0.953,> 20,0.934,> 40
"NCI-H2347 (lung adenocarcinoma, adherent)",0.854,> 5,0.983,> 10,0.974,> 10,0.588,1.18,0.982,> 10.2,0.801,12.3,0.804,25.4
"NCI-H2405 (lung adenocarcinoma, adherent)",0.854,4.65,0.985,> 10,0.97,> 10,0.858,9.94,0.986,> 10.2,0.983,> 20,0.927,> 40
"NCI-H2444 (non-small cell lung carcinoma, adherent)",0.948,> 5,0.988,> 10,0.987,> 10,0.976,> 10.2,0.988,> 10.2,0.987,> 20,0.868,> 40
"NCI-H2452 (mesothelioma, adherent)",0.869,> 5,0.968,> 10,0.976,> 10,0.984,> 10.2,0.984,> 10.2,0.715,5.78,0.892,> 40
"NUGC-4 (stomach, adherent)",0.962,> 5,0.985,> 10,0.968,> 10,0.947,> 10.2,0.977,> 10.2,0.797,9.41,0.673,7.61
"NY (osteosarcoma, adherent)",0.865,4.33,0.959,> 10,0.985,> 10,0.989,> 10.2,0.989,> 10.2,0.859,16.2,0.989,> 40

# IC50 is the fitted dose that halves viability relative to control wells, and lower means more sensitive; where the fit passes the top or lowest dose, that dose stands as a limit. AUC sums up the same curve from the lowest dose to the 256-fold higher top dose; values near 1 show little effect. For part of these data: An inferred top dose was calculated from the reported fits. For part of these data: An entry number marks a drug with two screens in the source, which often give different values.
